For part of its entries the source gives two or more results. This is not the full list of results. The source may hold further records. Values given together appear to be repeats (runs, samples, wells or individuals); one of them may be the mean.
Target: canine FcRn (UniProtKB-E2ROL6 [FcRn] and UniProtKB-E2RN10 [canine beta-2-microglobulin]) (canine)
Experiment: SPR Biacore 8K, pH 5.5, Fc captured on BSA via SASA tag, FcRn 400 nM

B1: wild-type canine IgG.B Fc (CH2 and CH3 domains) with SASA tag (Fc fusion, not shown: small tags and cut ends)
chain: APEMLGGPSVFIFPPKPKDTLLIARTPEVTCVVVDLDPEDPEVQISWFVDGKQMQTAKTQPREEQFNGTYRVVSVLPIGHQDWLKGKQFTCKVNNKALPSPIERTISKARGQAHQPSVYVLPPSREELSKNTVSLTCLIKDFFPPDIDVEWQSNGQQEPESKYRTTPPQLDEDGSYFLYSKLSVDKSRWQRGDTFICAVMHEALHNHYTQESLSHSPGK
- Kd: 321 nM, 592 nM, 418 nM, 534 nM, 488 nM, 514 nM, 606 nM, 489 nM, 616 nM, 614 nM, 465 nM, 1.13 µM [lines of one column]
- WT KD Avg/Variant KD: 1.76, 0.96, 1.35, 1.06, 1.16, 1.1, 0.93, 0.92, 1.22, 0.5 [lines of one column]
- koff: 1.16, 0.375, 0.185, 0.314, 0.188, 0.201, 0.16, 0.152, 0.166, 0.479, 0.135, 0.196 s⁻¹ [lines of one column]
- kon: 3.6e+06 M⁻¹ s⁻¹, 632000 M⁻¹ s⁻¹, 442000 M⁻¹ s⁻¹, 587000 M⁻¹ s⁻¹, 386000 M⁻¹ s⁻¹, 391000 M⁻¹ s⁻¹, 265000 M⁻¹ s⁻¹, 310000 M⁻¹ s⁻¹, 269000 M⁻¹ s⁻¹, 780000 M⁻¹ s⁻¹, 290000 M⁻¹ s⁻¹, 173000 M⁻¹ s⁻¹ [lines of one column]

From patent US20200216536A1
